Measured values from the supplement of paper PMC12067093, “Discovery and optimisation of a covalent ligand for TRIM25 and its application to targeted protein ubiquitination” (Chemical Science, 2025).
About 21,000 targets were measured; listed, in parts, are those with the largest changes and a random draw of the rest.

Compound: CC1Cc2ccccc2N1C(=O)C1CCCN(C1)C(=O)CCl (mixture of isomers) [TRIM25 ligand 11 (diastereomer mixture)]
Test: probe-labelled cysteine peptide fold change vs DMSO (competition) (log2 fold change); higher = less target engagement (more negative = stronger competition)
Conditions: THP-1, incubation time: 4 h
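Further: competitive chemoproteomic profiling in live THP-1 cells with an iodoacetamide desthiobiotin (IA-DTB) probe, comparing probe-labelled peptide intensities in compound-treated cells against DMSO-treated controls.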

## GSTO1_P78417_192_LNECVDHTPK (UniProt P78417)
10 µM
  probe-labelled cysteine peptide fold change: 0.0456
50 µM
  probe-labelled cysteine peptide fold change: 0.0287

## GLYR1_Q49A26_356_CYVDMSTVDADTVTELAQVIVSR (UniProt Q49A26)
10 µM
  probe-labelled cysteine peptide fold change: 0.496
50 µM
  probe-labelled cysteine peptide fold change: 0.833

## HK3_P52790_840_AAQLCGAGVAAVVEK (UniProt P52790)
10 µM
  probe-labelled cysteine peptide fold change: 0.0352
50 µM
  probe-labelled cysteine peptide fold change: -0.034

## GLRX_P35754_26_VVVFIKPTCPYCR (UniProt P35754)
10 µM
  probe-labelled cysteine peptide fold change: -0.438
50 µM
  probe-labelled cysteine peptide fold change: -1.02

## GRIPAP1_Q4V328-2_502_EAEGKEEELQDVRDQLEQAQEERDCHLK (UniProt Q4V328)
10 µM
  probe-labelled cysteine peptide fold change: -0.34
50 µM
  probe-labelled cysteine peptide fold change: -0.278

## GTF3C1_Q12789_1704_LRPAAAPLEELTMGTSCLPDTFTK (UniProt Q12789)
10 µM
  probe-labelled cysteine peptide fold change: -0.109
50 µM
  probe-labelled cysteine peptide fold change: -0.35

## HECTD4_Q9Y4D8_2036_DGAWTNPVGTCLFHNNGR (UniProt Q9Y4D8)
10 µM
  probe-labelled cysteine peptide fold change: 0.11
50 µM
  probe-labelled cysteine peptide fold change: 0.235

## GAK_O14976_1142_ACTQPRPNYASNFSVIGAR (UniProt O14976)
10 µM
  probe-labelled cysteine peptide fold change: -0.0658
50 µM
  probe-labelled cysteine peptide fold change: -0.144

## GTF3C4_Q9UKN8_93_SIAVLELICDVHNPGQDLVIHR (UniProt Q9UKN8)
10 µM
  probe-labelled cysteine peptide fold change: 0.198
50 µM
  probe-labelled cysteine peptide fold change: 0.205

## GOLGA4_Q13439_1085_ILLFGCEK (UniProt Q13439)
10 µM
  probe-labelled cysteine peptide fold change: -0.177

## GRK2_P25098_154_QVPPDLFQPYIEEICQNLR (UniProt P25098)
10 µM
  probe-labelled cysteine peptide fold change: 0.263
50 µM
  probe-labelled cysteine peptide fold change: -0.119

## HEXA_P06865_522_RGVQAQPLNVGFCEQEFEQT (UniProt P06865)
10 µM
  probe-labelled cysteine peptide fold change: 0.056
50 µM
  probe-labelled cysteine peptide fold change: -0.123

## GPATCH1_Q9BRR8_485_AQLSPAAAAGHCSWNMALGGGTATLK (UniProt Q9BRR8)
10 µM
  probe-labelled cysteine peptide fold change: 0.0037
50 µM
  probe-labelled cysteine peptide fold change: -0.635

## GNB1_P62873_317_VSCLGVTDDGMAVATGSWDSFLK<|>GNB2_P62879_317_VSCLGVTDDGMAVATGSWDSFLK (UniProt P62879+P62873)
10 µM
  probe-labelled cysteine peptide fold change: 0.028
50 µM
  probe-labelled cysteine peptide fold change: -0.0309

## HPRT1_P00492_106_SYCNDQSTGDIK (UniProt P00492)
10 µM
  probe-labelled cysteine peptide fold change: -0.0695
50 µM
  probe-labelled cysteine peptide fold change: -0.0943

## GSDMD_P57764_56_CVNLSIKDILEPDAAEPDVQR (UniProt P57764)
10 µM
  probe-labelled cysteine peptide fold change: -0.918
50 µM
  probe-labelled cysteine peptide fold change: -0.403

## HDAC1_Q13547_12_KVCYYYDGDVGNYYYGQGHPMKPHR (UniProt Q13547)
10 µM
  probe-labelled cysteine peptide fold change: -0.53
50 µM
  probe-labelled cysteine peptide fold change: -0.431

## GEMIN2_O14893_264_LLVDSKDDERVPALNLLICLVSR (UniProt O14893)
10 µM
  probe-labelled cysteine peptide fold change: -0.151
50 µM
  probe-labelled cysteine peptide fold change: -0.204

## HSD17B11_Q8NBQ5_215+217_TTCLCPNFVNTGFIK (UniProt Q8NBQ5)
10 µM
  probe-labelled cysteine peptide fold change: 0.0555
50 µM
  probe-labelled cysteine peptide fold change: 0.0766

## HNRNPD_Q14103_226_RGFCFITFK (UniProt Q14103)
10 µM
  probe-labelled cysteine peptide fold change: -0.152
50 µM
  probe-labelled cysteine peptide fold change: -0.117

## HK2_P52789_438_LVPGCDVR (UniProt P52789)
10 µM
  probe-labelled cysteine peptide fold change: -0.0817
50 µM
  probe-labelled cysteine peptide fold change: -0.0382

## HNRNPU_Q00839_594_KMCLFAGFQR (UniProt Q00839)
10 µM
  probe-labelled cysteine peptide fold change: -0.59
50 µM
  probe-labelled cysteine peptide fold change: -0.549

## HAUS3_Q68CZ6_123_CQLMASVTSHK (UniProt Q68CZ6)
10 µM
  probe-labelled cysteine peptide fold change: -0.0299
50 µM
  probe-labelled cysteine peptide fold change: 0.225

## GSTZ1_O43708_205_LLVLEAFQVSHPCR (UniProt O43708)
10 µM
  probe-labelled cysteine peptide fold change: 0.0737
50 µM
  probe-labelled cysteine peptide fold change: 0.0943

## GATM_P50440_324_DPNPMHIDATFNIIGPGIVLSNPDRPCHQIDLFK (UniProt P50440)
10 µM
  probe-labelled cysteine peptide fold change: 0.214
50 µM
  probe-labelled cysteine peptide fold change: 0.447

## GCC2_Q8IWJ2_399_EEQGCVIEK (UniProt Q8IWJ2)
10 µM
  probe-labelled cysteine peptide fold change: -0.21
50 µM
  probe-labelled cysteine peptide fold change: -0.0979

## HGH1_Q9BTY7_368_GMENLLEVQVPEDVEQQLQQLDCR (UniProt Q9BTY7)
10 µM
  probe-labelled cysteine peptide fold change: -0.0716
50 µM
  probe-labelled cysteine peptide fold change: -0.143

## GLOD4_Q9HC38_197_ALLGYADNQCK (UniProt Q9HC38)
10 µM
  probe-labelled cysteine peptide fold change: 0.0141
50 µM
  probe-labelled cysteine peptide fold change: 0.165

## HASPIN_Q8TF76_219_ASLPCSQEEATGGAK (UniProt Q8TF76)
10 µM
  probe-labelled cysteine peptide fold change: -0.0801
50 µM
  probe-labelled cysteine peptide fold change: -0.231

## HLA-DRB1_P04229_59_CIYNQEESVRFDSDVGEYR (UniProt P04229)
10 µM
  probe-labelled cysteine peptide fold change: 0.137
50 µM
  probe-labelled cysteine peptide fold change: 0.195

## HK1_P19367_256_MCINTEWGAFGDDGSLEDIRTEFDR (UniProt P19367)
10 µM
  probe-labelled cysteine peptide fold change: 0.0619
50 µM
  probe-labelled cysteine peptide fold change: 0.177

## HECTD1_Q9ULT8_2086_QLYFTCTAFGASR (UniProt Q9ULT8)
10 µM
  probe-labelled cysteine peptide fold change: 0.0366
50 µM
  probe-labelled cysteine peptide fold change: 0.19

## HNRNPL_P14866_260_ASLNGADIYSGCCTLK (UniProt P14866)
10 µM
  probe-labelled cysteine peptide fold change: 0.145
50 µM
  probe-labelled cysteine peptide fold change: 0.197

## GART_P22102_62_ISNTAISISDHTALAQFCK (UniProt P22102)
10 µM
  probe-labelled cysteine peptide fold change: 0.305
50 µM
  probe-labelled cysteine peptide fold change: -0.0487

## HINT3_Q9NQE9_96_HIGNCR (UniProt Q9NQE9)
10 µM
  probe-labelled cysteine peptide fold change: 0.0524
50 µM
  probe-labelled cysteine peptide fold change: 0.0325

## HERPUD1_Q15011_86_HVLHLVCNVK (UniProt Q15011)
10 µM
  probe-labelled cysteine peptide fold change: 0.109
50 µM
  probe-labelled cysteine peptide fold change: 0.551

## HSPH1_Q92598_245_LVEHFCAEFK (UniProt Q92598)
10 µM
  probe-labelled cysteine peptide fold change: -0.0153
50 µM
  probe-labelled cysteine peptide fold change: -0.0589
